Consider one substance from PMC12624062.

The chains behind the UniProt entries cited, without tags or fusion partners.
UniProt Q9JMB7: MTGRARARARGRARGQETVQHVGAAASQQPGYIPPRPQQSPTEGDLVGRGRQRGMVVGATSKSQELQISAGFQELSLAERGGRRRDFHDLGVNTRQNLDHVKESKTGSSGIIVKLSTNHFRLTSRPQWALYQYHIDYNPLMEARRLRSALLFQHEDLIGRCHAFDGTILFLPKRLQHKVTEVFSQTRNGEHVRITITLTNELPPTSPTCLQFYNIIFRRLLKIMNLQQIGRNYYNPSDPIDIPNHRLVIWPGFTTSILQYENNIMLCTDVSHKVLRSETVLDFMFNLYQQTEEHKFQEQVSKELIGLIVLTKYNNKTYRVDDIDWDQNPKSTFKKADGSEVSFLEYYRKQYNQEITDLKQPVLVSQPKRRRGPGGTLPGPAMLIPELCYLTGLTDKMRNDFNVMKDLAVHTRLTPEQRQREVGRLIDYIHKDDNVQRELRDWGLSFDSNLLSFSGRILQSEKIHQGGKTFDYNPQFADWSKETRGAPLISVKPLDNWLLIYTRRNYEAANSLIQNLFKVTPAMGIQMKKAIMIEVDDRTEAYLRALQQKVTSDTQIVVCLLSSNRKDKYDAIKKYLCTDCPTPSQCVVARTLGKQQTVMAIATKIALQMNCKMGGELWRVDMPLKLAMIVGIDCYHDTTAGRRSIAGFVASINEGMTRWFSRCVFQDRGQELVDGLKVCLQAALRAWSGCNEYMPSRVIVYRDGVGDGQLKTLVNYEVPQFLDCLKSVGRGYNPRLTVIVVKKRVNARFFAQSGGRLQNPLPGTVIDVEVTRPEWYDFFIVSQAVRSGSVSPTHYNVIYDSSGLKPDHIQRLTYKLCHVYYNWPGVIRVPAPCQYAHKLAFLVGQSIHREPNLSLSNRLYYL

Holding throughout (experiment): co-IP; 293T cells transiently transfected with tagged mouse proteins; lysis in 150 mM NaCl, 50 mM Tris-HCl pH 7.4, 1% Triton X-100, 1 mM EDTA; Protein A/G agarose beads and antibodies overnight at 4 °C; washes with 300 mM NaCl; Western blot for Flag, HA, GFP; some panels with the methyltransferase inhibitor MTA
Background: Immunoblotting shows a protein as a band on a membrane.

In one assay the target is T1, GPAT2 (mouse) (UniProt Q14DK4).
T1 sequence: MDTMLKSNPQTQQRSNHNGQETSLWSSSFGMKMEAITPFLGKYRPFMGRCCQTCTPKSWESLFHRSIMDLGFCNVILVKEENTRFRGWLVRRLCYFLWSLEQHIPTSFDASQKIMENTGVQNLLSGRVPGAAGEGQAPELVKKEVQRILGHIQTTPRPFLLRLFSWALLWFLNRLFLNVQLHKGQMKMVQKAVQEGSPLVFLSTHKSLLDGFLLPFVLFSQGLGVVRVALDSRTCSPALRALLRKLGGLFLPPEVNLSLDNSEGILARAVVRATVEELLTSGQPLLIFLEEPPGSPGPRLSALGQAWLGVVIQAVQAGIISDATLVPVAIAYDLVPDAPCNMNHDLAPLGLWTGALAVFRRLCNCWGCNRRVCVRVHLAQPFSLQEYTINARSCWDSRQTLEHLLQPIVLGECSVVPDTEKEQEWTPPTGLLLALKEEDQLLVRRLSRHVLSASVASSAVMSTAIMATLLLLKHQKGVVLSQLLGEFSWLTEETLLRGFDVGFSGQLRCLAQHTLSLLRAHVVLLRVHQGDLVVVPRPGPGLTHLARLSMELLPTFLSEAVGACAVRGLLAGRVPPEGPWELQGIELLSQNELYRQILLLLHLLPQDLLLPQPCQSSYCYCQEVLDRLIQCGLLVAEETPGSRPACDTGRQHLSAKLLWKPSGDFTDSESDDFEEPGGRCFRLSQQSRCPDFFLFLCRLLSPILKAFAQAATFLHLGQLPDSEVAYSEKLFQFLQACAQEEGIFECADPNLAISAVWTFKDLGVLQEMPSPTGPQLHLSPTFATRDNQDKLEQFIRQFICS

In a further assay the target is T2, mitoPLD (mouse) (UniProt Q5SWZ9).
T2 sequence: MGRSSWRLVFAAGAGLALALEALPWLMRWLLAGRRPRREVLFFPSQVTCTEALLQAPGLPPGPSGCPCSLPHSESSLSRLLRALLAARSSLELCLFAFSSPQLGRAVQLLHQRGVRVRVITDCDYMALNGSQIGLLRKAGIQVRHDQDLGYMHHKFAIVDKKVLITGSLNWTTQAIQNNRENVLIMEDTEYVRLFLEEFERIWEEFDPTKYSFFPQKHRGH

The next assay deals with T3, TDRKH (mouse) (UniProt Q80VL1).
T3 sequence: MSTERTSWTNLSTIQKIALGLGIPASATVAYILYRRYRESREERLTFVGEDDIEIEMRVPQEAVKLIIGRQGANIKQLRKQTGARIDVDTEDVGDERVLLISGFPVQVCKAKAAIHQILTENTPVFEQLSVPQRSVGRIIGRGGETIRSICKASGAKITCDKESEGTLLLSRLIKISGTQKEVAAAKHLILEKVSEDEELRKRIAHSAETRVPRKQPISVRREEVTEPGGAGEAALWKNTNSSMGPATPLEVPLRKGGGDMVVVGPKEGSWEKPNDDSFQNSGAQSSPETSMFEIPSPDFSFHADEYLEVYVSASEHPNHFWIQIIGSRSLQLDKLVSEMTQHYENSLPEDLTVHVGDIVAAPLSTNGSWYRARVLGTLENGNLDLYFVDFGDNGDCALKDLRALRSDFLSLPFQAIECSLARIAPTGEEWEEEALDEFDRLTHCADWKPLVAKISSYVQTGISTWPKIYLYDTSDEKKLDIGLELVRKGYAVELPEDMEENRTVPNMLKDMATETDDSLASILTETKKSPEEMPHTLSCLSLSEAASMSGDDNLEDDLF

The target of a further assay is T4, TDRD1 (mouse) (UniProt Q99MV1).
T4 sequence: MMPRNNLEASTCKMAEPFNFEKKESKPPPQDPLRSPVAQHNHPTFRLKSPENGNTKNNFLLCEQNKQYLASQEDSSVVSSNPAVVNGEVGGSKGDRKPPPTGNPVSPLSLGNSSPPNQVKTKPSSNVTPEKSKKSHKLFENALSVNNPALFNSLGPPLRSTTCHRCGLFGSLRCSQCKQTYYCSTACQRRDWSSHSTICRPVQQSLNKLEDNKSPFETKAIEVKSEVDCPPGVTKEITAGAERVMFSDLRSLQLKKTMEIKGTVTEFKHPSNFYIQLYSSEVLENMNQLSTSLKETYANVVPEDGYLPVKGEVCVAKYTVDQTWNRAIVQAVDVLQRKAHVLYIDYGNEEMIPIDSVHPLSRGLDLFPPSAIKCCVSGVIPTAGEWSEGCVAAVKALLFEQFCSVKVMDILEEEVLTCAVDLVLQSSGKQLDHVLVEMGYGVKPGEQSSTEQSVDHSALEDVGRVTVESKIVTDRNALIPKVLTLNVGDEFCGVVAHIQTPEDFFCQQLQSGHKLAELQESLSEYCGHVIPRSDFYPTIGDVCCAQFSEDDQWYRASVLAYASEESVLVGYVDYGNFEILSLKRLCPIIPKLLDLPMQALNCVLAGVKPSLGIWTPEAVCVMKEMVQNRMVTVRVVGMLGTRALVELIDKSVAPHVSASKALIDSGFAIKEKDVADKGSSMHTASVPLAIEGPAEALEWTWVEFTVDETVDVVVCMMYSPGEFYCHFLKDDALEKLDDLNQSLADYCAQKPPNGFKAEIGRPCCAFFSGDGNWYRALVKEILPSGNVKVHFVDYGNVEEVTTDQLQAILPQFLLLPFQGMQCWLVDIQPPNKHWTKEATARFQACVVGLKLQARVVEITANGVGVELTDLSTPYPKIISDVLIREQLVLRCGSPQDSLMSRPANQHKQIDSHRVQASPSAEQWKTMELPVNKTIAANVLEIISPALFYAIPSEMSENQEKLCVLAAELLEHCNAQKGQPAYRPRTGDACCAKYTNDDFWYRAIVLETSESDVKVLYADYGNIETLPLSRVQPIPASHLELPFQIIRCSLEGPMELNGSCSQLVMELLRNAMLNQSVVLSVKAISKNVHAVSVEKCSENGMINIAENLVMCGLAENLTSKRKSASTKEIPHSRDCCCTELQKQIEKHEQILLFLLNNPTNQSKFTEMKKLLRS

In a further assay the target is T5, ASZ1 (mouse) (UniProt Q8VD46).
T5 sequence: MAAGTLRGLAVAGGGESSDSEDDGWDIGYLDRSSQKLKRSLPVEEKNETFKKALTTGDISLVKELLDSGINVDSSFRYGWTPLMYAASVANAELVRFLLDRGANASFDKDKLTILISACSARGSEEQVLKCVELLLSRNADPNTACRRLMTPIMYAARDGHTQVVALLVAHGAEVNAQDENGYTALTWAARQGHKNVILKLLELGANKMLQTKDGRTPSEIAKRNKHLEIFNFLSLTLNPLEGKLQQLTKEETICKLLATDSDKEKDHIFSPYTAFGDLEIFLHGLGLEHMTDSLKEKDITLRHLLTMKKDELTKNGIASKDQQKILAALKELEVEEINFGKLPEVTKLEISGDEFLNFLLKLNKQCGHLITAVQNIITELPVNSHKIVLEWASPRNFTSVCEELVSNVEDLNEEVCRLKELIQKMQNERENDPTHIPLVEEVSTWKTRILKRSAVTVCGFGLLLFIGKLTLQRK

No constants are given. Whether binding was seen depends on the method and setting. In cells and extracts the contact can be indirect. Some results given as binding are weak or reduced against the parent protein; the word gives no strength.

With PIWIL1 (from UniProt Q9JMB7 1-862), the binding result with GPAT2 (mouse) is given as “no binding”; with mitoPLD (mouse), “no binding”; with TDRKH (mouse) it was “binds”; with TDRD1 (mouse) it was “binds”; with ASZ1 (mouse), “no binding”.
